Some of the results follow.
B1: PhoQ; a variant is named by its letters at X, in order, P23837 (parent)
chain: MKKLLRLFFPLSLRVRFLLATAAVVLVLSLAYGMVALIGYSVSFDKTTFRLLRGESNLFYTLAKWENNKLHVELPENIDKQSPTMTLIYDENGQLLWAQRDVPWLMKMIQPDWLKSNGFHEIEADVNDTSLLLSGDHSIQQQLQEVREDDDDAEMTHSVAVNVYPATSRMPKLTIVVVDTIPVELKSSYMVWSWFIYVLSANLLLVIPLLWVAAWWSLRPIEALAKEVRELEEHNRELLNPATTRELTSLVRNLNRLLKSERERYDKYRTTLTDLTHSLKTPLXXLQXXLRSLRSEKMSVSDAEPVMLEQISRISQQIGYYLHRASMRGGTLLSRELHPVAPLLDNLTSALNKVYQRKGVNISLDISPEISFVGEQNDFVEVMGNVLDNACKYCLEFVEISARQTDEHLYIVVEDDGPGIPLSKREVIFDRGQRVDTLRPGQGVGLAVAREITEQYEGKIVAGESMLGGARMEVIFGRQHSAPKDE

Variants of: B1
Assay: enrichment ratio after two sorts for PhoP signalling (ratio (wild type AVST 3.29)); higher = more functional
Conditions: with PhoP (E. coli)

DNDN and RCLP cannot be ordered by enrichment ratio: ≤ 0.25 for the first, ≤ 0.25 for the second.

VKTE and DVCM cannot be ordered by enrichment ratio: ≤ 0.25 for the first, ≤ 0.25 for the second.

HLCP and VHQG cannot be ordered by enrichment ratio: ≤ 0.25 for the first, ≤ 0.25 for the second.

NYFN and RYFR cannot be ordered by enrichment ratio: ≤ 0.25 for the first, ≤ 0.25 for the second.

First: VGCI
Second: LDTC
The enrichment ratio of the first is higher: 4.54 for the first, ≤ 0.25 for the second.

MYHD and HRKL cannot be ordered by enrichment ratio: ≤ 0.25 for the first, ≤ 0.25 for the second.

MQAK and NASY cannot be ordered by enrichment ratio: ≤ 0.25 for the first, ≤ 0.25 for the second.

LKFT and AIFQ cannot be ordered by enrichment ratio: ≤ 0.25 for the first, ≤ 0.25 for the second.

RPPL and QMGP cannot be ordered by enrichment ratio: ≤ 0.25 for the first, ≤ 0.25 for the second.

Compared with LNMD, GNLL is higher in enrichment ratio: ≤ 0.25 for the first, 15.3 for the second.

WRQL and IFWT cannot be ordered by enrichment ratio: ≤ 0.25 for the first, ≤ 0.25 for the second.

IMTC and HVSD cannot be ordered by enrichment ratio: ≤ 0.25 for the first, ≤ 0.25 for the second.

TPGP and HHCT cannot be ordered by enrichment ratio: ≤ 0.25 for the first, ≤ 0.25 for the second.

SAGP and VWED cannot be ordered by enrichment ratio: ≤ 0.25 for the first, ≤ 0.25 for the second.

Compared with KLKM, VYRS is higher in enrichment ratio: ≤ 0.25 for the first, 0.255 for the second.

RIRW and YFVT cannot be ordered by enrichment ratio: ≤ 0.25 for the first, ≤ 0.25 for the second.

GYAR and FQKH cannot be ordered by enrichment ratio: ≤ 0.25 for the first, ≤ 0.25 for the second.

Going from AAMI to KRTC, the enrichment ratio falls from 3.3 to ≤ 0.25.

KFKI and WECT cannot be ordered by enrichment ratio: ≤ 0.25 for the first, ≤ 0.25 for the second.

NMRE and GWWP cannot be ordered by enrichment ratio: ≤ 0.25 for the first, ≤ 0.25 for the second.

MLNN and KLGK cannot be ordered by enrichment ratio: ≤ 0.25 for the first, ≤ 0.25 for the second.

MLCY and IPLN cannot be ordered by enrichment ratio: ≤ 0.25 for the first, ≤ 0.25 for the second.

Going from AVLM to GFKL, the enrichment ratio falls from 9.14 to ≤ 0.25.

FIEV and VRAH cannot be ordered by enrichment ratio: ≤ 0.25 for the first, ≤ 0.25 for the second.

AMFC and LYEA cannot be ordered by enrichment ratio: ≤ 0.25 for the first, ≤ 0.25 for the second.

FDEI and YLSW cannot be ordered by enrichment ratio: ≤ 0.25 for the first, ≤ 0.25 for the second.

RLFF and IEQF cannot be ordered by enrichment ratio: ≤ 0.25 for the first, ≤ 0.25 for the second.

TSRY and TPDC cannot be ordered by enrichment ratio: ≤ 0.25 for the first, ≤ 0.25 for the second.

ENSF and DRSQ cannot be ordered by enrichment ratio: ≤ 0.25 for the first, ≤ 0.25 for the second.

FSDL and PHNK cannot be ordered by enrichment ratio: ≤ 0.25 for the first, ≤ 0.25 for the second.

YNWL and PSHP cannot be ordered by enrichment ratio: ≤ 0.25 for the first, ≤ 0.25 for the second.

RCTV and PRPD cannot be ordered by enrichment ratio: ≤ 0.25 for the first, ≤ 0.25 for the second.

FNTL and FLPP cannot be ordered by enrichment ratio: ≤ 0.25 for the first, ≤ 0.25 for the second.

KERN and YFPH cannot be ordered by enrichment ratio: ≤ 0.25 for the first, ≤ 0.25 for the second.

HWHC and HCGK cannot be ordered by enrichment ratio: ≤ 0.25 for the first, ≤ 0.25 for the second.

RPRV and PWVR cannot be ordered by enrichment ratio: ≤ 0.25 for the first, ≤ 0.25 for the second.

LSEG and SYRK cannot be ordered by enrichment ratio: ≤ 0.25 for the first, ≤ 0.25 for the second.

Going from VALS to STNF, the enrichment ratio rises from 5.15 to 12.6.

ICPA and DSFS cannot be ordered by enrichment ratio: ≤ 0.25 for the first, ≤ 0.25 for the second.

YSTS and RCTE cannot be ordered by enrichment ratio: ≤ 0.25 for the first, ≤ 0.25 for the second.

First: HLAL
Second: VVPW
The enrichment ratio of the first is higher: 1.23 for the first, ≤ 0.25 for the second.

First: SCYE
Second: IYYC
The enrichment ratio of the first is higher: 0.33 for the first, ≤ 0.25 for the second.

SYFC and ACFQ cannot be ordered by enrichment ratio: ≤ 0.25 for the first, ≤ 0.25 for the second.

First: MGWV
Second: YSKK
The enrichment ratio of the first is higher: 6.77 for the first, ≤ 0.25 for the second.

FLRI and FQKD cannot be ordered by enrichment ratio: ≤ 0.25 for the first, ≤ 0.25 for the second.

First: MCLG
Second: LPAN
The enrichment ratio of the first is higher: 6.87 for the first, ≤ 0.25 for the second.

First: SIMT
Second: HIVN
The enrichment ratio of the first is higher: 7.68 for the first, ≤ 0.25 for the second.

YPRM and TNRY cannot be ordered by enrichment ratio: ≤ 0.25 for the first, ≤ 0.25 for the second.

EDYS and ERTH cannot be ordered by enrichment ratio: ≤ 0.25 for the first, ≤ 0.25 for the second.

QGDI and IAAM cannot be ordered by enrichment ratio: ≤ 0.25 for the first, ≤ 0.25 for the second.

PMDI and RIGV cannot be ordered by enrichment ratio: ≤ 0.25 for the first, ≤ 0.25 for the second.

SWFI and YRFE cannot be ordered by enrichment ratio: ≤ 0.25 for the first, ≤ 0.25 for the second.

MLQH and NFFL cannot be ordered by enrichment ratio: ≤ 0.25 for the first, ≤ 0.25 for the second.

HPQW and PERH cannot be ordered by enrichment ratio: ≤ 0.25 for the first, ≤ 0.25 for the second.

DLYN and EKIP cannot be ordered by enrichment ratio: ≤ 0.25 for the first, ≤ 0.25 for the second.

FEQK and HAGS cannot be ordered by enrichment ratio: ≤ 0.25 for the first, ≤ 0.25 for the second.

Compared with AETW, FCAY is lower in enrichment ratio: 11.3 for the first, ≤ 0.25 for the second.

AQHA and VLVM cannot be ordered by enrichment ratio: ≤ 0.25 for the first, ≤ 0.25 for the second.

YNGP and VSDN cannot be ordered by enrichment ratio: ≤ 0.25 for the first, ≤ 0.25 for the second.

VADC and ESSG cannot be ordered by enrichment ratio: ≤ 0.25 for the first, ≤ 0.25 for the second.

SYVA and DNNN cannot be ordered by enrichment ratio: ≤ 0.25 for the first, ≤ 0.25 for the second.

SSHT and LHEE cannot be ordered by enrichment ratio: ≤ 0.25 for the first, ≤ 0.25 for the second.

YNEY and RVVW cannot be ordered by enrichment ratio: ≤ 0.25 for the first, ≤ 0.25 for the second.

PAVQ and YNRP cannot be ordered by enrichment ratio: ≤ 0.25 for the first, ≤ 0.25 for the second.

FDSK and YADI cannot be ordered by enrichment ratio: ≤ 0.25 for the first, ≤ 0.25 for the second.

EMFI and YHMK cannot be ordered by enrichment ratio: ≤ 0.25 for the first, ≤ 0.25 for the second.

Going from TGYG to QDFK, the enrichment ratio falls from 9.68 to ≤ 0.25.

First: YEIC
Second: PKCA
The enrichment ratio of the first is higher: 1.24 for the first, ≤ 0.25 for the second.

QVLH and EYIS cannot be ordered by enrichment ratio: ≤ 0.25 for the first, ≤ 0.25 for the second.

IFME and IQFM cannot be ordered by enrichment ratio: ≤ 0.25 for the first, ≤ 0.25 for the second.

GCYQ and PKDG cannot be ordered by enrichment ratio: ≤ 0.25 for the first, ≤ 0.25 for the second.

PQWS and NFVR cannot be ordered by enrichment ratio: ≤ 0.25 for the first, ≤ 0.25 for the second.

LSCR and HLNA cannot be ordered by enrichment ratio: ≤ 0.25 for the first, ≤ 0.25 for the second.

SWNS and AHAG cannot be ordered by enrichment ratio: ≤ 0.25 for the first, ≤ 0.25 for the second.

First: SQAM
Second: QFHH
The enrichment ratio of the first is higher: 21.4 for the first, ≤ 0.25 for the second.

Going from YMAE to QNLW, the enrichment ratio falls from 0.497 to ≤ 0.25.

Compared with ETGF, QFMI is higher in enrichment ratio: ≤ 0.25 for the first, 0.792 for the second.

First: YVYG
Second: AVCI
The enrichment ratio of the first is lower: ≤ 0.25 for the first, 21.8 for the second.

FCRE and DMIQ cannot be ordered by enrichment ratio: ≤ 0.25 for the first, ≤ 0.25 for the second.

QYHK and SYQR cannot be ordered by enrichment ratio: ≤ 0.25 for the first, ≤ 0.25 for the second.

Compared with TKTQ, FQDM is lower in enrichment ratio: 12.6 for the first, ≤ 0.25 for the second.

WLPM and IAKN cannot be ordered by enrichment ratio: ≤ 0.25 for the first, ≤ 0.25 for the second.

YLAI and YYYC cannot be ordered by enrichment ratio: ≤ 0.25 for the first, ≤ 0.25 for the second.

Going from GGIY to IPCL, the enrichment ratio falls from 2.45 to ≤ 0.25.

Going from GMSY to AHGT, the enrichment ratio falls from 1.48 to ≤ 0.25.

RGNT and WTSY cannot be ordered by enrichment ratio: ≤ 0.25 for the first, ≤ 0.25 for the second.

RWGR and ECYR cannot be ordered by enrichment ratio: ≤ 0.25 for the first, ≤ 0.25 for the second.

RWMQ and KELG cannot be ordered by enrichment ratio: ≤ 0.25 for the first, ≤ 0.25 for the second.

QQSG and VKES cannot be ordered by enrichment ratio: ≤ 0.25 for the first, ≤ 0.25 for the second.

MKLK and RCMM cannot be ordered by enrichment ratio: ≤ 0.25 for the first, ≤ 0.25 for the second.

VDRW and EECS cannot be ordered by enrichment ratio: ≤ 0.25 for the first, ≤ 0.25 for the second.

RCIP and SQDS cannot be ordered by enrichment ratio: ≤ 0.25 for the first, ≤ 0.25 for the second.

TDTW and GPVW cannot be ordered by enrichment ratio: ≤ 0.25 for the first, ≤ 0.25 for the second.

GWLV and YHEL cannot be ordered by enrichment ratio: ≤ 0.25 for the first, ≤ 0.25 for the second.

Compared with SGPG, RMGR is higher in enrichment ratio: ≤ 0.25 for the first, 0.804 for the second.

INQF and NAES cannot be ordered by enrichment ratio: ≤ 0.25 for the first, ≤ 0.25 for the second.

VKDV and GLGR cannot be ordered by enrichment ratio: ≤ 0.25 for the first, ≤ 0.25 for the second.

For IAFY, the enrichment ratio was ≤ 0.25.

Source: a collection of fitness landscapes (doi:10.1126/science.1257360)
